Experimental data published in PubChem BioAssay AID1963576 (National Center for Advancing Translational Sciences (NCATS), 2024).
The whole screen tested about 46,000 compounds, of which about 60 (0.1%) were called active. Not shown: some 3% with an inconclusive outcome. Calls follow the shape of the dose curve; as a rule, active = well fitted inhibition curve with a large enough effect; inconclusive = small, poorly fitted or top-dose-only effect; inactive = no such curve, though single readings can be large or run the other way. The list shows a part of the results.

Assay: Primary qHTS assay for Inhibitors of ovarian cancer metastasis using an organotypic tumor microenvironment (TME) model. Also: nearly all actives have a fitted effect of over 65% in size.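 As to activity change, negative = inhibition: plate controls were DMSO wells for no effect and tomatine positive control wells for full effect.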
Settings: SKOV3ip1-GFP adhesion/invasion on 3D omental model, fluorescence; series mostly up to 45.8 µM; activity change, negative = inhibition: at the top concentration
How it was run: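 qHTS, 4-pt dose (0.36-46 umol/L); SKOV3ip1-GFP, 1,200 cells/well, no FBS; primary omental fibroblast/mesothelial co-culture 48 h pre-grown; 2 h RT + 16 h 37 C; PBS wash, 4% PFA; GFP count 488/509 nm.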

Activity change, negative = inhibition, inactive:
CCc1ccccc1N(CC)C(=O)C1CCN(c2ncnc3c2nc2n3CCCCC2)CC1 -1.94%
COCCCNc1nc(NCc2ccc(C)cc2)c2cnn(C)c2n1 4.46%
COc1cccc2c1cc1c(=O)n(CC(=O)N3CCC(C)CC3)nc(C)n12 -18.1%
COCCc1nn2c(=O)cc(COC(=O)c3ccc(Br)cc3)nc2s1 1.78%
CN1CCN(C(CNC(=O)c2c(F)cccc2F)c2ccc3c(c2)OCO3)CC1 (centres undefined) -6.71%
O=c1c2ccccc2n(Cc2cccc(Cl)c2)c(=O)n1Cc1ccccc1 14%
CCN(C(=O)Cn1ncc2c(=O)oc3ccccc3c21)c1ccccc1F 4%
CCC(=O)Nc1sc2c(c1C(=O)Nc1ccc(Br)cc1)CCCCC2 -7.26%
COc1ccccc1-c1nc(SCC(=O)c2ccc(Cl)cc2)n[nH]1 1.88%
O=c1oc2ccccc2cc1-c1nc(-c2cccs2)no1 10.4%
CCS(=O)(=O)N1CCc2cc(C(=O)NCc3ccccc3Cl)ccc21 4.46%
COc1cc(OC)cc(C(=O)NCCc2csc(-c3ccc(C(F)(F)F)cc3)n2)c1 -3.53%
COc1ccccc1NC(=O)c1sc2nc(C)c(C(=O)Nc3ccc(C)cc3C)c(-c3ccccc3Cl)c2c1N 5.86%
O=C(c1cc2ccc3cccnc3c2[nH]1)N1CCN(c2cccc(Cl)c2)CC1 -8.69%
COc1ccc(NC(=O)C(C(C)C)N2Cc3ccccc3C2=O)cc1 (centres undefined) -10.7%
O=C(NCCc1ccc(Cl)cc1)C(=O)NCC(c1cccs1)S(=O)(=O)c1ccccc1 (centres undefined) 1.29%
Cc1ccc(Nc2c(-c3ccc(C)cc3)nc3c(C)cccn23)cc1 14.4%
COc1ccc(-c2noc(CSc3nc4ccccc4[nH]3)n2)cc1 -16.3%
Cc1cc2n(n1)CCC(=O)N2Cc1ccc(C(=O)Nc2cccc(C(F)(F)F)c2)cc1 4.46%
COC(=O)c1cc2sc(C)cc2n1Cc1nc(-c2ccc(C)cc2)oc1C -7.33%
CC(=O)N1c2ccc(S(=O)(=O)NCCC(=O)N(C)Cc3ccccc3)cc2CC1C (centres undefined) -6.61%
CNC(=O)c1c(NC(=O)Cc2coc3ccc(OC)cc23)sc2c1CCCC2 -0.657%
O=C(Cc1ccc(Cl)cc1)Nc1ccc2oc(-c3ccccc3F)nc2c1 -4.79%
COc1cccc(CN(C(=O)c2oc3ccccc3c2C)C2CCS(=O)(=O)C2)c1 (centres undefined) 14%
CCc1cccc(C)c1NC(=O)CCS(=O)(=O)c1ccc2c(c1)oc(=O)n2C 1.91%
COc1cc(C)ccc1OCCSc1nc2ccc(NC(C)=O)cc2s1 -6.93%
CCc1ccc(NC(=O)CSc2nc3c([nH]c4ccccc43)c(=O)n2-c2cccc(OC)c2)cc1 -0.478%
CCOC(=O)c1ccc(NC(=O)Cn2cnc3sc(C(=O)OCC)c(C)c3c2=O)cc1 6.33%
CCC(Sc1nnc2c3ccccc3n(C)c2n1)C(=O)Nc1nnc(C(C)C)s1 (centres undefined) -5.64%
Cc1cc(F)ccc1NC(=O)CCSc1nc(-c2ccco2)cc(C(F)(F)F)n1 5.89%
COC(=O)COc1ccc(Oc2nc(NC(C)(C)C)nc(N(C)C)n2)nn1 -1.03%
Cc1cccc(C(=O)N2CCc3cc(CNS(=O)(=O)c4cccs4)ccc32)c1 -7.51%
Cc1ccc2nc(N(Cc3cccnc3)C(=O)CCOc3ccccc3)sc2c1 -35.7%
CCc1cc2c(cc3c(=O)n(CC(=O)NCCOC)nc(CC)n32)s1 -2.6%
CC(=O)Nc1ccc(Nc2ncnc3sc4c(c23)CCCC4)cc1 -3.11%
COc1ccc(C(=O)NCC(c2ccc3c(c2)OCO3)N2CCOCC2)cc1OC (centres undefined) 3.03%
Cc1ccc(C(=O)NC2(C(F)(F)F)N=C(c3ccccc3)N(C3CCCCC3)C2=O)cc1 (centres undefined) 8.13%
O=C(Cn1c(=O)n2nc(-c3cccc(F)c3)nc2c2ccccc21)N1CCN(c2ccccc2F)CC1 -0.106%
O=C(c1cccc(Cl)c1)N1CCC(c2nc3ccccc3o2)CC1 -12.1%
CC1CCN(c2cc(N3CCN(C)CC3)ccc2NC(=O)c2cc(C#N)c[nH]2)CC1 23.3%
COc1cccc(C(=O)Nc2ccc(C(=O)OCc3cc(=O)n4nc(C5CC5)sc4n3)cc2)c1 1.51%
COc1cc(OC)c(NC(=O)N2CC=C(c3c[nH]c4ccccc34)CC2)cc1Cl 3.44%
COc1ccccc1OCc1nc(-c2cccc(C)c2)no1 7.11%

outcome, inactive:
CCCCNC(=O)CN1CCN(c2ncc(NC(=O)c3ccc(Cl)cc3)cc2C(=O)O)CC1
COc1cc(NC(=O)C2CCN(c3nc4ccccc4nc3C(F)(F)F)CC2)cc(OC)c1
CCC(C)NC(=O)c1sc2nc3n(c(=O)c2c1C)CCC3 (centres undefined)
Cc1cccc(N2CCN(C(=O)c3cc4ccc5cccnc5c4[nH]3)CC2C)c1 (centres undefined)
Cc1ccc2oc(=O)c3cc(C(=O)NCCc4ccc(Cl)cc4)sc3c2c1
Cc1ccc(NC(=O)CCN2C(=O)c3ccccc3Sc3ncccc32)c(Cl)c1
CCc1ccccc1NC(=O)NC(CC)Cn1nnc2ccccc2c1=O (centres undefined)
CCOc1ccccc1NS(=O)(=O)c1cc(-c2cnc(C3CC3)o2)ccc1C
Cc1ccc(-n2nc3c(=O)n(C(C)C(=O)NCc4ccccc4C)nc(C)c3c2C)cc1 (centres undefined)
CCCCc1nn2c(=O)cc(COC(=O)c3ccccc3C)nc2s1
CC(C)c1ccc(Nc2c(-c3ccc(N(C)C)cc3)nc3cnccn23)cc1
Cc1ccc(C)c(NC(=O)CSc2nc(=O)n(Cc3ccncc3)c3c2CCC3)c1
CCCCCn1c(=O)c2c(nc3n2CCN3c2ccc(Br)cc2)n(C)c1=O
CCOc1ccc(NC(=O)CSc2nc(=O)[nH]c3c2CCC3)cc1
Cc1ccc(C)c(CNC(=O)c2sc3ncnc(N(C)C4CCCCC4)c3c2C)c1
COc1ccc(-c2cc3ccc(O)c(CN4CCCC4)c3oc2=O)cc1OC
CCn1c(CC2C(=O)N(C)c3ccc(Br)cc32)nc2ccccc2c1=O (centres undefined)
CCOC(=O)c1c(C)c(-c2ccccc2)n(CC(=O)Nc2cccc(C)c2C)c1C
CC1CCN(C(=O)C(C)Sc2nc(-c3ccccc3)cc(C(F)(F)F)n2)CC1 (centres undefined)
COc1ccc(OC)c(NC(=O)c2c(C)oc3ncnc(N4CCOCC4)c23)c1
Cn1c(=O)cc(SCC(=O)N2CCN(c3ccccc3)CC2)c2ccccc21
